This passage reports IC50 results from patent US20120101087A1, “Generation of Combinatorial Synthetic Libraries and Screening for Novel Proadhesins and Nonadhesins” (priority 2007, published 2012).

For orientation: IC50 means the concentration that inhibits the measured activity by half.

Read-outs that look alike come from different tables or passages of the source.

The test system of this test is Human Influenza A (H1N1). As to the kind of experiment: microbe, parasite or virus in culture. It counts as cell-based.
[1] abbreviates: read-out: IC50 Influenza A, anti-infection (adhesion).
Where [2] appears, read: Influenza A virus, H1N1, read-out: IC50 Influenza A, anti-infection (adhesion).

Regarding “N-(3-{[N-(3-propyl)-6-hydroxy-2-naphthamide]-methyl-amino}-propyl)-4-hydroxy-benzamide [compound 1]”, the half-inhibitory concentration (IC50) under setting [1] amounted to 155 µM.
On the same count and under the same terms, in the case of `O=C(O)/C=C/c1ccc(OS(=O)(=O)O)cc1` [Zosteric Acid, reference compound] it was 858 µM.
With `CN(CCCNC(=O)c1ccc(O)cc1)CCCNC(=O)c1ccc(O)cc1` [IV], under setting [2], the IC50 was determined as 4080 µM.
On the same count and under the same terms, in the case of `CCN(CCOC(=O)/C=C/c1ccc(O)cc1)Cc1cc(Cl)ccc1O` [Compound I] it was 66 µM; in that of `CN(CCCNC(=O)c1ccc(O)cc1)CCCNC(=O)c1ccc2cc(O)ccc2c1` [III], 155 µM.
